Results: PMC7819943, “Rice protein-binding microarrays: a tool to detect cis-acting elements near promoter regions in rice”
This is one part of the list.

molecular target: T1, OsWOX13 (Oryza sativa, UniProt Q5QMM3 1-267); assay: protein-binding microarray (RPBM); PBS, 2% BSA, 51.3 ng/ul salmon testes DNA, 50 uM zinc acetate, 200 nM TF, 25 C, 1 h; high values mean tight binding; settings: protein: recombinant; tags: N-terminal polyhistidine and DsRed monomer fusion (pET32a); label: CyDye5-dUTP incorporated in the synthesized complementary strand; 3' TTTTT single-stranded linker to array surface; dsDNA, one strand shown
T1 sequence: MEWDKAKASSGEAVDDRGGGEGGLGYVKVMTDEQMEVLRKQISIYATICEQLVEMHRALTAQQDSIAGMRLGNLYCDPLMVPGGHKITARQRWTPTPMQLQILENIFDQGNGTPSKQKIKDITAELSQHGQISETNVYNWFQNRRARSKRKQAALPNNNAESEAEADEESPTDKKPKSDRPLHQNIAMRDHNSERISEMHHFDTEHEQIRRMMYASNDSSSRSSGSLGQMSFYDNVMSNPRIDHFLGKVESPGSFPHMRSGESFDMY
How it was run: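 Ni–NTA purification followed expression in E. coli BL21-CodonPlus of transcription factors fused N-terminally to a polyhistidine tag and DsRed. At 200 nM in PBS with 2% BSA, salmon testes DNA and 50 µM zinc acetate, the protein was incubated for 1 h at 25 °C with a custom Agilent array that had been primer-extended with Cy5-dUTP and blocked with 2% BSA. After washing, the array was read on an Axon 4000B scanner. The binding signal is per-feature fluorescence intensity in arbitrary units.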

Sequence | binding signal
TTCCGGTATGACCATTGATTTGTATCCATTTGATAGGCTGCGGAGTCACCTAGTGCAG | 6490 fluorescence intensity (a.u.)
GAAAACAAATTATCGTCACGGATTGCCTCTGTCAGTGACGCGGAGTCACCTAGTGCAG | 20600 fluorescence intensity (a.u.)
TATGATGCTAATTATCCACAATCTGAGATTTCTCGTCACTCGGAGTCACCTAGTGCAG | 21100 fluorescence intensity (a.u.)
CAGAATTAACTCGCTGTCAAAATTTTAGGTATAAGAACATCGGAGTCACCTAGTGCAG | 8820 fluorescence intensity (a.u.)
ATGATTGATTGCTTTTCCTAAATCCTAACCATGATGCTGTCGGAGTCACCTAGTGCAG | 65000 fluorescence intensity (a.u.)
ATTTCGCCTAATTAATCGATCATTAGCACATATGGGTTACCGGAGTCACCTAGTGCAG | 13200 fluorescence intensity (a.u.)
ATTAAACTTACCAAGATTGCATTGCACCAACCAATTAGTTCGGAGTCACCTAGTGCAG | 4340 fluorescence intensity (a.u.)
ACTAAACAAACTGACTAGACTCCTAGAACTAAGGAACTGGCGGAGTCACCTAGTGCAG | 8250 fluorescence intensity (a.u.)
AAATTCCTGATTTACAGTGATCCCAGTCACCCCGGTCTTCCGGAGTCACCTAGTGCAG | 10000 fluorescence intensity (a.u.)
GATTTTGATAAATTTAATCGACTTCTTTAGAAACTTGTGTCGGAGTCACCTAGTGCAG | 7930 fluorescence intensity (a.u.)
CACTAATTTACCAATTATTGAATTTCAGAATAATCAATTACGGAGTCACCTAGTGCAG | 18800 fluorescence intensity (a.u.)
AAGCGGCATTGATTGCAAATGATAGAACACATATTGAAATCGGAGTCACCTAGTGCAG | 11700 fluorescence intensity (a.u.)
ATTGATAATTTGAAGAGGATTAGGTAAGAGCCATCAGGCTCGGAGTCACCTAGTGCAG | 22800 fluorescence intensity (a.u.)
AAAACGATTGATAGGGATTTGAAGTATCTCATTGGCAATTCGGAGTCACCTAGTGCAG | 11500 fluorescence intensity (a.u.)
GTGAAAATGATTGGTCTTTTGATTAACATATGCAGCTTATCGGAGTCACCTAGTGCAG | 53300 fluorescence intensity (a.u.)
TGACTTGATTAATTGCTTCTATGTTTGGCACCCAATTAATCGGAGTCACCTAGTGCAG | 44900 fluorescence intensity (a.u.)
TACAATTATGATTTGCCTTCAAATTTGCATTTTCATATTTCGGAGTCACCTAGTGCAG | 13500 fluorescence intensity (a.u.)
GAATTGATTGCATGCAAACGGGGCAGCACACTGATACTCGCGGAGTCACCTAGTGCAG | 38400 fluorescence intensity (a.u.)
TCATAATTATAATTGCCATCTCTACTTGGTATCAGGTACACGGAGTCACCTAGTGCAG | 26700 fluorescence intensity (a.u.)
CCAAAACTAATTTATAAAATACTTTCTCGAAATCCCCGGACGGAGTCACCTAGTGCAG | 19200 fluorescence intensity (a.u.)
TACAATGTAATTAGTCTAATTCAGTAACATATTTTAAGAGCGGAGTCACCTAGTGCAG | 15800 fluorescence intensity (a.u.)

Sequence | binding signal
GTTAATTAGCTAATTTGGGTGAATCCATCCATCCATCCAACGGAGTCACCTAGTGCAG | 40700 fluorescence intensity (a.u.)
CAAAATTGTTTGGTTATTTTGAAGTCCGAGGGAGTACTGTCGGAGTCACCTAGTGCAG | 6490 fluorescence intensity (a.u.)
TTGGTAATAATTTGTTCAAATTTAACAAAATTTATCAAAACGGAGTCACCTAGTGCAG | 11000 fluorescence intensity (a.u.)
CCAAGGTGATTACGCCACCTTCTCGCCTTCCTCGTGTATACGGAGTCACCTAGTGCAG | 6020 fluorescence intensity (a.u.)
TGACTATGATTTGGAAGACTTTTGTCAGCTAATTCATGTACGGAGTCACCTAGTGCAG | 8550 fluorescence intensity (a.u.)
TCTGGATTGGCCTTCCAGATTTGCAGTTAGAGACTCAAGACGGAGTCACCTAGTGCAG | 6750 fluorescence intensity (a.u.)
CCTTGACAAAATTTCCTCCACCCATTCCCTTCTCCACCCACGGAGTCACCTAGTGCAG | 19000 fluorescence intensity (a.u.)
ATCTTATCTAATTAGACGACCTACGAACATCTCAAATCGTCGGAGTCACCTAGTGCAG | 15900 fluorescence intensity (a.u.)
GATATAATTGGTATTATTACTAGGTTGGTGTGATATCCTACGGAGTCACCTAGTGCAG | 27400 fluorescence intensity (a.u.)
TTATAATTGGTTAGGATAAAAGAGCATGTAGAAAATTTAACGGAGTCACCTAGTGCAG | 11100 fluorescence intensity (a.u.)
CTTGATTTCACAAAATTTAGCAGGCAAAATTTGCTACTCCCGGAGTCACCTAGTGCAG | 27100 fluorescence intensity (a.u.)
ATTAAATTTGGTTTGCAGTGTTCGCGAAATAAACACGATTCGGAGTCACCTAGTGCAG | 4780 fluorescence intensity (a.u.)
AATTAAATTAATTTACAAATAAAGTAAGTGTGGGAAGAAACGGAGTCACCTAGTGCAG | 37700 fluorescence intensity (a.u.)
TTGATATGTAAATTTCGCGTAATTTCATATGTAGAACAATCGGAGTCACCTAGTGCAG | 12400 fluorescence intensity (a.u.)
GTACATTATTCAATTTAGTTGTGTGCATCTAGCTTACTGACGGAGTCACCTAGTGCAG | 3710 fluorescence intensity (a.u.)
TTTTACATCATTATATTTGATTAGTGCAAATTTGGTCCTTCGGAGTCACCTAGTGCAG | 14500 fluorescence intensity (a.u.)
GATAATTTACTCCAGTTTACTTCTGCCTGCGGATTCCAATCGGAGTCACCTAGTGCAG | 18800 fluorescence intensity (a.u.)
TTATATAGTTACCAAAATTTGACAGCAAACTAAATGTAGCCGGAGTCACCTAGTGCAG | 3680 fluorescence intensity (a.u.)
GAGATTTTGACTGCTTTGGTACCATTCAGTGAGATGACACCGGAGTCACCTAGTGCAG | 5520 fluorescence intensity (a.u.)
GGATTTCTTGATTAGGGAAAAGGGGATGTGCAAAACTAAACGGAGTCACCTAGTGCAG | 7860 fluorescence intensity (a.u.)
GAAAATTATTTTCTTGGTTGGTTTCTTAAGAGAGCCGTGTCGGAGTCACCTAGTGCAG | 5340 fluorescence intensity (a.u.)

Sequence | binding signal
ATTTGACAAAATCTTTAAAAGAATTAGGTTTATCGATAAGCGGAGTCACCTAGTGCAG | 5550 fluorescence intensity (a.u.)
GATTAATTTAGAAATTTTGAATTCTATTACATAATGATCACGGAGTCACCTAGTGCAG | 20600 fluorescence intensity (a.u.)
CATCAATTTTCCAAATTTTGCTACCTGTACACAGGAGATCCGGAGTCACCTAGTGCAG | 6180 fluorescence intensity (a.u.)
TGAGTGATGACAGTAAGTAACTGAATCTGCTGAGTTCTGACGGAGTCACCTAGTGCAG | 6590 fluorescence intensity (a.u.)
GGGAGAGGTGATGAGTGATTGGAGTAGAGGGGAGATGAGGCGGAGTCACCTAGTGCAG | 12600 fluorescence intensity (a.u.)
CTAAATTTGTTATTAATAACATTTGGATAAACACTTTTCTCGGAGTCACCTAGTGCAG | 14500 fluorescence intensity (a.u.)
AAATGTTTAATTAATTATAAGAAAATAGGTCGCTCTATTTCGGAGTCACCTAGTGCAG | 26000 fluorescence intensity (a.u.)
ATAAGATTTGACACCTGATACTGATACTGTCCAGTTTATGCGGAGTCACCTAGTGCAG | 4360 fluorescence intensity (a.u.)
AGTTTATTCAATCAGTGATATTCCTACGAAATGTTGGATACGGAGTCACCTAGTGCAG | 18100 fluorescence intensity (a.u.)
GACAACTTGATAGAGTGTGACACGCTCTTGTGAATAATCTCGGAGTCACCTAGTGCAG | 3510 fluorescence intensity (a.u.)
ATGCTAGGGAGATTAGATTGACTGAGATTGCTGAGGGGTACGGAGTCACCTAGTGCAG | 36600 fluorescence intensity (a.u.)
GATTAATAATGTAAAATTGATGTTACTAGATTTATTATTACGGAGTCACCTAGTGCAG | 6450 fluorescence intensity (a.u.)
TAGTAAATTACAATTTAATTCCGAAATGTTGGGTGATACACGGAGTCACCTAGTGCAG | 35900 fluorescence intensity (a.u.)
GTGGTCCAATCACCCTTTGACCCTTCGCCTCCGTGGCGCCCGGAGTCACCTAGTGCAG | 3380 fluorescence intensity (a.u.)
TTTAATTTGGTTGACTTACATAGTTAAATAGGAGTACCTACGGAGTCACCTAGTGCAG | 10600 fluorescence intensity (a.u.)
TTGATCATCTACCAATTAAGTGTACTAATTTGGATGATAACGGAGTCACCTAGTGCAG | 13600 fluorescence intensity (a.u.)
TTTAATTTACAATCTACATGCATGGGCTGGGCCCAACAAGCGGAGTCACCTAGTGCAG | 18700 fluorescence intensity (a.u.)
GTCTTCTTAAAATTAATCACTATGATGAAATGACCTCTAACGGAGTCACCTAGTGCAG | 3570 fluorescence intensity (a.u.)
ACATGGCCTAGTTGACATTAATTGGTATTATCTCTAGCGTCGGAGTCACCTAGTGCAG | 5530 fluorescence intensity (a.u.)
GGGGTTGTTCAGATTGATGCCATTTCAAACCATATCAATTCGGAGTCACCTAGTGCAG | 3270 fluorescence intensity (a.u.)
CATATGTCTATCTAGATTTATTAACATAAATATAAATGTGCGGAGTCACCTAGTGCAG | 9960 fluorescence intensity (a.u.)

Sequence | binding signal
ACCAATTAATAAAACTTCAATGCCAAACCTTTTATCACTACGGAGTCACCTAGTGCAG | 3810 fluorescence intensity (a.u.)
ATGTTTGTTTCCTTTAAATTAGCTATACTTTCTGTAATCCCGGAGTCACCTAGTGCAG | 4600 fluorescence intensity (a.u.)
AGACATTTGAATAATTGATAAACCTAAAAGTGGCAAATAGCGGAGTCACCTAGTGCAG | 13800 fluorescence intensity (a.u.)
TATACTAATTAATACACTCATAGCAATATTTGTGAGTATTCGGAGTCACCTAGTGCAG | 7290 fluorescence intensity (a.u.)
GTAGATTTTCTGTTTCCTAATCCATCCAACCATTGTAATTCGGAGTCACCTAGTGCAG | 4620 fluorescence intensity (a.u.)
AAACACTGATGATGACCAAATTTTACAAAGTTAATGGGCCCGGAGTCACCTAGTGCAG | 10400 fluorescence intensity (a.u.)
TCTCAGTTGATTGCTTCAAGACTTGTTGAGCTTGTTATGTCGGAGTCACCTAGTGCAG | 35800 fluorescence intensity (a.u.)
AATCTGTAATTTGTTTTGTTATTAGTCTACAGGCCTGTTCCGGAGTCACCTAGTGCAG | 11700 fluorescence intensity (a.u.)
TTATTAAGTTTATTGATGGTGATTTTCTGGATGGTTGAATCGGAGTCACCTAGTGCAG | 8850 fluorescence intensity (a.u.)
AATATATTCCATCGATAATCATCTCATCAAACATGACAAGCGGAGTCACCTAGTGCAG | 3830 fluorescence intensity (a.u.)
GAAATTAATAACAAATTAAAACCAGAGCCAGCTGACTGCTCGGAGTCACCTAGTGCAG | 21700 fluorescence intensity (a.u.)
TTTTCCAATTAAGAAAATATGCTGACATAGATATATTGTACGGAGTCACCTAGTGCAG | 6900 fluorescence intensity (a.u.)
CTTAAATCATGATGATTTTATTGGTTGTTGGCATGCACAGCGGAGTCACCTAGTGCAG | 30500 fluorescence intensity (a.u.)
CGATTGATTGATCCCGTCCCCTCCTTTGATCTGAGATTCACGGAGTCACCTAGTGCAG | 41700 fluorescence intensity (a.u.)
ATGATGACAGCACAAGCATTAGAATTATAGAATTTAACACCGGAGTCACCTAGTGCAG | 3180 fluorescence intensity (a.u.)
GGCCTGATGATGGAATGTGTCGGCTTAGGGATTGTAGTGTCGGAGTCACCTAGTGCAG | 4290 fluorescence intensity (a.u.)
AAACTAATCAGACAAACATCTCTCATCTGTCTATCAGTTTCGGAGTCACCTAGTGCAG | 7500 fluorescence intensity (a.u.)
GTAGTGAATGGCTGCCTAATTTTGTGCATTAACCATGGTGCGGAGTCACCTAGTGCAG | 5100 fluorescence intensity (a.u.)
GGACAATGACAGCACATTACGCGCACCTTTTCTTCTACCACGGAGTCACCTAGTGCAG | 4070 fluorescence intensity (a.u.)
AGCTGATTGTTTGGCCCAGCGACCGACGGCCTTTTACTGGCGGAGTCACCTAGTGCAG | 22800 fluorescence intensity (a.u.)
TTGTTAATTACCTTGTTTAATTAATTTCGCTAGCTTAGATCGGAGTCACCTAGTGCAG | 44700 fluorescence intensity (a.u.)
